# Measurements as given in PubChem BioAssay AID2675 (National Center for Advancing Translational Sciences (NCATS), 2010).
# Screen size: about 280,000 compounds; about 100 (0.036%) were called active. Inconclusive results, whose numbers are uncertain, are shown with a selection of clear calls. The call rests on the fitted dose curve; in most records, active means well fitted inhibition curve with a large enough effect in the signal ratio, with a control signal flat (not every such curve was filed as active); inconclusive means small, poorly fitted or top-dose-only effect, or effect the other way, or a change in a side signal; inactive means no such curve, though single readings can be large or run the other way; the % refers to the signal ratio. A potency beside an inconclusive call is a rough fit, not a confirmed value. A note “side channel” means that the fit belongs to a control or component signal, not to the main read-out.
# Target: Muscleblind-like protein 1 (Homo sapiens) (UniProt Q9NR56)
# Assay: qHTS Assay for Inhibitors of MBNL1-poly(CUG) RNA binding
# Conditions: TR-FRET MBNL1-His/biotin-(CUG)12 binding, 665/545 ratio; activity change, negative = inhibition: at 57.5 µM (top of the series)
# Method in brief: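 Ratiometric TR-FRET (665 over 545 nm, excitation 340 nm) tracks disruption of MBNL1-His/biotin-(CUG)12 complex after 60 min at room temperature, with compounds at 92 nM to 58 uM final.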
# On the % scale 0 is the no-effect control and ±100 the full control effect; potency means the concentration at half of the fitted maximal effect; tags describe the fitted curve by direction and shape or compound fluorescence and quenching.
# UniProt Q9NR56, sequence (Q9NR56 whole entry, looked up): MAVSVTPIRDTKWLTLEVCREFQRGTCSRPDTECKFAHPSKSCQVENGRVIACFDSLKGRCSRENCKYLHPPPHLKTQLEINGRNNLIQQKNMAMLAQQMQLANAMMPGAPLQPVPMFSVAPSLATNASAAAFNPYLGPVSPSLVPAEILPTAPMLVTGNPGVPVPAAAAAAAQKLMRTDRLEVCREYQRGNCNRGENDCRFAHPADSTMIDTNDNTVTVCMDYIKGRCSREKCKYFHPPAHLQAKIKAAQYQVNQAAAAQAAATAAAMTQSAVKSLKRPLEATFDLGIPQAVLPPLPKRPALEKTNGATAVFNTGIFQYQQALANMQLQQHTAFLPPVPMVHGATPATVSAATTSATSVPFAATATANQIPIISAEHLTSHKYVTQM
Compound,"activity change, negative = inhibition",Potency
CCCC(=O)NC(c1ccco1)c1cc([N+](=O)[O-])c2cccnc2c1O (centres undefined),inactive: 2.54%,
O=[N+]([O-])c1ccc(C(=S)N2CCCC2)cc1,,"inconclusive: 8.91 µM [quencher, side channel, partial curve]"
N#C/C(=C/c1ccc(-c2ccccc2)o1)c1nc(-c2cccs2)cs1,inactive: -31.6%,
COc1cc(/C=N/NS(=O)(=O)c2ccc(C)c([N+](=O)[O-])c2)cc([N+](=O)[O-])c1O,,"inconclusive: 22.4 µM [quencher, side channel, partial curve]"
COc1ccccc1/C=C\C=N\NC(=O)c1ccco1,,"inconclusive: 25.1 µM [quencher, side channel, single point]"
Cc1[nH]c2ccccc2c1/C=C/C(=O)c1ccncc1,,"inconclusive: 1.26 µM [quencher, side channel, full curve]"
CCN(CC)S(=O)(=O)c1ccc(NCCCn2ccnc2)c([N+](=O)[O-])c1,,"inconclusive: 15.8 µM [quencher, partial curve]"
COc1cccc2nc3cc(C)c(C)cc3nc12,,"inconclusive: 5.62 µM [quencher, side channel, partial curve]"
COc1cc2c(cc1NC(=O)C(C)Sc1cccc[n+]1[O-])oc1ccccc12 (centres undefined),,"inconclusive: 0.178 µM [fluorescent, side channel, full curve, poor fit]"
Cc1ccc(-n2cc(C(=O)c3ccc(F)cc3)nn2)cc1Cl,,"inconclusive: 39.8 µM [fluorescent, side channel, single point]"
O=C(CSc1nc2c(c(=O)n1-c1ccc(Cl)cc1)SCC2)NCc1ccco1,,"inconclusive: 25.1 µM [quencher, side channel, partial curve]"
Cc1ccc(NC(=O)C(OC(=O)c2ccc(F)cc2)c2ccccc2)cc1Cl (centres undefined),,"inconclusive: 0.0891 µM [fluorescent, side channel, full curve]"
Fc1ccccc1COc1ccc(/C=N/n2cnnc2)cc1,inactive: 5.27%,
Cc1ccc(NC(=O)c2nc[nH]c2C(=O)NCC(=O)OC(C)(C)C)cc1,inactive: -6.32%,
NC(=O)c1ccc(NC(=O)COC(=O)CCCN2C(=O)c3cccc4cccc(c34)C2=O)cc1,,"inconclusive: 8.91 µM [quencher, side channel, partial curve]"
CC(=O)Nc1ccc(OCCOc2ccc([N+](=O)[O-])cc2)cc1,,"inconclusive: 12.6 µM [quencher, side channel, partial curve]"
CCOC(=O)c1cnc2nc[nH]n2c1=O,,"inconclusive: 39.8 µM [inhibitor, partial curve, poor fit]"
O=C(CSc1ncnc2ccccc12)NCCCO,,"inconclusive: 35.5 µM [quencher, side channel, single point]"
CC(=O)N1CCN(c2ccc(NC(=O)c3ccc([N+](=O)[O-])cc3Cl)cc2)CC1,,"inconclusive: 17.8 µM [quencher, side channel, partial curve]"
O=C1CN(CC(=O)N2CCCCC2)c2ccccc2O1,,"inconclusive: 31.6 µM [quencher, single point]"

Compound,"activity change, negative = inhibition",Potency
O=C(Cc1ccc(F)cc1)Nc1ccc(F)c([N+](=O)[O-])c1,,"inconclusive: 28.2 µM [quencher, side channel, partial curve]"
O=C(Nc1ccc(Oc2ccccc2)cc1)C1CCCO1 (centres undefined),inactive: 20%,
CN(C)c1ccc(/C=N/NC(=O)c2nonc2N)cc1[N+](=O)[O-],,"inconclusive: 12.6 µM [quencher, side channel, partial curve]"
Cc1cc2c(N)cccc2nn1,,"inconclusive: 15.8 µM [quencher, side channel, partial curve]"
O=C(NCc1cccnc1)c1cc2ccccc2oc1=O,,"inconclusive: 12.6 µM [quencher, side channel, partial curve]"
O=C(c1cccc(F)c1)N1CCCc2ccccc21,inactive: -2.6%,
CCOc1cc(NS(=O)(=O)c2ccc(Cl)cc2)c(OCC)cc1NC(=O)CC(C)C,,"inconclusive: 35.5 µM [quencher, side channel, partial curve]"
O=C(CCNS(=O)(=O)c1cccc2nsnc12)N1CCN(c2ccccn2)CC1,,"inconclusive: 8.91 µM [quencher, side channel, partial curve]"
Cn1c(=O)c(-c2ccccc2)nn2c3ccccc3nc12,,"inconclusive: 2.51 µM [quencher, full curve, poor fit]"
Nc1ccc(C(=O)OCC(=O)NC2CCCc3ccccc32)cc1[N+](=O)[O-] (centres undefined),,"inconclusive: 3.98 µM [quencher, side channel, partial curve]"
CCC(NC(=O)CCc1ccccc1)c1ccccc1 (centres undefined),inactive: -7.11%,
CCOC(=O)/C(C#N)=C/c1cn(CCC(=O)O)nc1-c1ccccc1,,"inconclusive: 3.16 µM [quencher, side channel, partial curve, poor fit]"
CC(O)CNc1ccc([N+](=O)[O-])cc1S(=O)(=O)N1CCOCC1 (centres undefined),,"inconclusive: 35.5 µM [quencher, side channel, single point]"
Cc1ccc(C(=O)O/N=C/c2ccc(N(C)C)cc2)cc1,,"inconclusive: 0.794 µM [fluorescent, side channel, single point]"
Cc1cc(C)nc(NS(=O)(=O)c2ccc(NC(=O)CSc3nc(-c4ccccc4)c(C#N)c(=O)[nH]3)cc2)n1,,"inconclusive: 15.8 µM [fluorescent, side channel, partial curve]"
CCCCN(CCCC)CCNC(=O)c1ccc2nc(-c3ccccc3NC(C)=O)c(=O)[nH]c2c1,,"inconclusive: 10 µM [quencher, side channel, partial curve]"
COc1ccc(CN2CCC(CO)(Cc3cccc(C(F)(F)F)c3)CC2)cc1Cn1cccn1,inactive: -4.42%,
Cc1nnc(NC(=O)c2ccccc2-c2ccccc2C(=O)O)s1,inactive: -5.56%,
O=[N+]([O-])c1ccc(C(O)C[n+]2ccccc2)cc1 (centres undefined),,"inconclusive: 15.8 µM [quencher, side channel, partial curve]"
